Data published in the supplement of paper PMC10126150.
Values marked as one replicate rest on one cluster of the flow cell; about a third of the high ones do not repeat.

Tested on: ATP
Experiment: switch fluorescence ratio, 500 uM ATP over buffer (Cy3 cluster intensity, sum of 5 cycles each) (fold (ratio)); higher = stronger signal-on switching upon ATP binding; sequences stand for … in TCGTCGGCAGCGTCAGATGTGTATAAGAGACAGTTTTTTTTTTTTTTTTTTTTTTTTT…TC
Details: aptamer strand: ATP DNA aptamer (quencher-CACCTGGGGGAGTATTGCGGAGGAAGG + anchor), 100 nM annealed; ATP concentration: 500 uM; one replicate
Summary of the method: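 After annealing to 100 nM quencher-labelled ATP aptamer, Cy3-labelled switching-strand clusters on a modified Illumina MiSeq flow-cell were imaged in selection buffer. A second image followed after 15 min with 500 uM ATP at 22 °C, and five such buffer/ATP cycles were done, each separated by NaOH stripping and re-annealing. The fluorescence ratio, averaged per switch-domain sequence, is summed target-cycle over summed buffer-cycle Cy3 intensity per cluster, with clusters outside 100-1000 RFU excluded.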
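Further: ATP exposure 15 min at 22 °C before imaging.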

Row | Sequence | switch fluorescence ratio
1 | ATTCGCGCGT | 1.01
2 | GGATCATCCA | 0.995
3 | AAGTTACCGT | 1.08
4 | CGAACTTAG | 0.935
5 | ATATGAACAA | 0.996
6 | TATCTCTCAG | 0.989
7 | TTGAACGGGC | 1.14
8 | GGATAGTCGA | 1.04
9 | TTCCGCCCAT | 1.48
10 | GACCCTAGCT | 1.04
11 | TTCTCCCCCA | 1.14
12 | TAGTAAGTTG | 1.07
13 | GGTTTGAGCC | 0.924
14 | TAGTTATTGT | 1.03
15 | GCGGTCCCGT | 0.994
16 | CTAATGTAAG | 1.02
17 | AGTTGTGCTT | 0.94
18 | TTGAGGGAAA | 1
19 | CAGGAGATGC | 1.08
20 | ATAATCATCC | 0.997
21 | TAGCGGTTA | 0.989
22 | TTTTTGCCAG | 0.988
23 | GGATTTTTCC | 1.07

Row | Sequence | switch fluorescence ratio
24 | AGGTCATATC | 1.02
25 | CTCACTCGAC | 1.08
26 | AACGGCGCCG | 1.01
27 | CTGAGGCGGT | 1.42
28 | ACGACTAGAA | 1.08
29 | GCTAATTGCT | 0.979
30 | AGGTGGAGA | 0.984
31 | CATACTTAAA | 1.03
32 | ACCAGGTCGC | 1.15
33 | AGCGAATCCT | 1.07
34 | AAGTAAGTGT | 1.06
35 | CACTTAATGT | 1.03
36 | AATTAAAGAT | 0.959
37 | AGTGATTAC | 1.06
38 | GCGACGTATT | 1.13
39 | TTCATTTAAG | 0.995
40 | AAGAATAAGC | 0.961
41 | TGCCAGCTTC | 1
42 | CGTCATATC | 1.35
43 | ACCTCGTCTG | 1.02
44 | AGAACTTATA | 1.04
45 | GACACTTCG | 1.01
46 | CCTCTTGACC | 1.18

Row | Sequence | switch fluorescence ratio
47 | TAGCCTCTCC | 1.73
48 | CCGTGTTAGG | 0.986
49 | ATATAACTCG | 0.999
50 | TTCGGATCCC | 1.08
51 | ATGAAGCCTC | 1.06
52 | AAAGACGGAA | 1.21
53 | CTCCTGGTCT | 1.07
54 | CGGTGCGTGT | 0.988
55 | CAGCGCCCGC | 1
56 | CCGTCTGGCA | 1.07
57 | CACAGCGATA | 3.82
58 | TGGGGTGAAT | 0.987
59 | CCGGCGAGCT | 1.06
60 | AACGGTTGG | 0.984
61 | GGGGATGACA | 0.938
62 | TCTAGATCTG | 1
63 | GTCGGCGTGC | 1.05
64 | ATTGTGGTT | 0.959
65 | GGTAATT | 0.97
66 | AGAATAGCTA | 1.01
67 | TGAGAAAGTT | 1
68 | CGCTAGCGAA | 0.968
69 | AAAAGATACC | 1.07

Row | Sequence | switch fluorescence ratio
70 | TAGAAAAGAC | 2.14
71 | ATGATTTGCC | 0.997
72 | CAAAACACGT | 1.01
73 | AAAGAAAGAG | 0.972
74 | AAATGGCACC | 1.04
75 | TTATTTGTG | 1.03
76 | TCATCATATA | 1.03
77 | CCTAAACAGT | 1.09
78 | GTTCGGGTC | 0.954
79 | AGCCGACGAA | 1.2
80 | AGCTCGAGGG | 0.997
81 | TAGCAGCAGG | 1.52
82 | CCGGGTTCCT | 1.02
83 | GATCTTTGTA | 0.949
84 | GATGGGAAAC | 1.1
85 | TCAGGCGTTC | 1.01
86 | CTTGAGGTAG | 1.01
87 | CCGGGAATAT | 2.42
88 | GAAGTTGCAT | 1.01
89 | TAAGCCCAGG | 2.78
90 | TTAGTAGGCT | 0.971
91 | GCACAACGTT | 1
92 | CCGTCCGTTG | 1.54

Row | Sequence | switch fluorescence ratio
93 | CAGTTCAACA | 1.02
94 | ATGGGTCTG | 1.03
95 | TCGTGATAAT | 1.04
96 | TACTAGCAGC | 1.14
97 | TGCTGTTCAG | 0.998
98 | CTCGTAAACT | 1.12
99 | GTCCGTTTCT | 0.963
100 | ACGATTCGGT | 0.995
101 | CTGGTTTGGG | 0.994
102 | ATATAAGACG | 0.869
103 | CGAGAAGGGA | 0.966
104 | GGTCCGTAT | 1.05
105 | TTCAAATGG | 1.09
106 | AAGGACAAGT | 1.01
107 | TCGCAGGGC | 1.43
108 | ACGTAGGCT | 1.07
109 | GATAGACGGC | 0.979
110 | ATAAAGGATG | 0.985
111 | TTCCGGATAT | 1.03
112 | TGAGGGACG | 0.988
113 | TAGTACTTAA | 0.998
114 | AGTGGCACAC | 0.994
115 | ACGCCAAAGT | 1.06

Row | Sequence | switch fluorescence ratio
116 | TACGGGGCT | 1.07
117 | TGGCTTTGAT | 0.974
118 | GGGCACACCC | 1.04
119 | GTAACAAGGT | 0.996
120 | CTAATCAATG | 1.03
121 | TAAGGCTCTC | 0.982
122 | GGGGGCCGTG | 0.869
123 | CGGTAGTACG | 0.952
124 | GTAATTAGCG | 0.993
125 | AAATTTAT | 1.02
126 | GTCTGACCAG | 1.05
127 | AGCTTCAGTG | 0.982
128 | TATCAGAAGA | 0.984
129 | CTGTAAGCCT | 1.09
130 | GCTGCGTCGC | 0.968
131 | GAACAAATGC | 1.08
132 | TCTGTGTCTG | 0.955
133 | AGACTAGGGG | 0.962
134 | CAAGCCGTTA | 1.02
135 | TTGATATTGG | 0.966
136 | ACGACCCGGT | 2.42
137 | ACGGTATAAA | 1.16
138 | TTGTTCTCAC | 0.983

Row | Sequence | switch fluorescence ratio
139 | ACCGCACCCC | 2.4
140 | TAAGAAAAGG | 1.02
141 | GCCTCAGGTA | 1.02
142 | GTGAAAATGT | 1.02
143 | GGTAGGACGT | 1
144 | TGCTTTGTGG | 0.956
145 | CAAACTTCC | 2.83
146 | GGTCGTATCG | 0.928
147 | TACGTTGTC | 1.18
148 | TTTATGTTCA | 1.01
149 | ACATAGTGCG | 1
150 | TCCCGTTTCT | 1.08
151 | AAGCACGTTA | 1.22
152 | AGCATAGGAA | 1.04
153 | TAACGTCGAT | 1.01
154 | CTATTCTCAT | 0.983
155 | TGTAAGGTAT | 1.03
156 | TTATACTTAT | 1.02
157 | GTAGGGCCCC | 0.977
158 | CGCCGGATGT | 0.995
